Some of the results follow. Values come from read counts of a selection and are noisy. Scores sum up all selected molecules that hold the word; the word was not tested alone.
Test system: IMP3 KH3-4
Assay: 6-mer SELEX enrichment z-score vs GST control; IMP3 is the RNA-binding protein IGF2BP3; higher = more enriched by binding
Conditions: construct: KH3-4 (377-579); SELEX round: R4
Procedure: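 SELEX-seq with GST-tagged IMP3 KH3-4 (Pro377-Lys579) and an N40 RNA pool, round 4. 6-mer z-score of sequence-tag enrichment normalised to the corresponding GST SELEX round; RNA k-mers written as DNA (T for U).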

IMP3 KH3-4, sequence (chain, as listed by the source): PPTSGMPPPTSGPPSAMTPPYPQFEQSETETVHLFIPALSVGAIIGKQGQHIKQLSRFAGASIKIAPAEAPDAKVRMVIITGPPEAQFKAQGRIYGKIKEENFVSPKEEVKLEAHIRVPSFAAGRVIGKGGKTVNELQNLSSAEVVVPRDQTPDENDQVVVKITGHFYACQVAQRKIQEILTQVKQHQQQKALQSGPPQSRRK

| Sequence | 6-mer SELEX enrichment z-score |
| --- | --- |
| GCTAGG | 0.067 |
| GCAACC | -0.922 |
| CAGTCG | 0.634 |
| TTGAAC | -0.248 |
| GAGCAC | -0.955 |
| GCTTTA | 0.7 |
| GATCAG | 0.317 |
| GTGACT | -0.163 |
| CAGTTG | -0.09 |
| CCTGCC | -1.59 |
| CTCTAA | -0.195 |
| CGCGAG | -1.28 |
| TCAGGC | 0.444 |
| GATTTA | 1.63 |
| GTTATT | 0.414 |
| TCCCAA | -2.05 |
| AACGCG | -1.37 |
| GCCCGA | -2.31 |
| CCCCTG | -0.985 |
| GAAGTA | 0.099 |

| Sequence | 6-mer SELEX enrichment z-score |
| --- | --- |
| CTGATC | -0.256 |
| GTACAT | 0.222 |
| TCCATA | 0.536 |
| ATATTT | 2.68 |
| AGGAAC | -0.031 |
| GACCCT | -1.38 |
| TAAATC | 0.507 |
| GGTTCA | 0.285 |
| TGCCGC | -0.139 |
| TGATAA | 2.04 |
| CCCGGT | -0.807 |
| GGCCCC | -0.225 |
| GCGGCA | 1.75 |
| GTATCT | -0.17 |
| TTCTAC | 0.351 |
| CACAGT | 0.263 |
| GCAGTT | 0.003 |
| AACTAG | 0.167 |
| TTTCAA | 0.777 |
| GCCCCC | -0.309 |

From the supplement of paper PMC6531468
